# Experimental data taken from publication PMC9911399, “Two distinct binding modes provide the RNA-binding protein RbFox with extraordinary sequence specificity”.
# Residue numbers refer to the chain shown, from its start. The list shows a part of the results.
# T1: RBFOX1 RRM (Homo sapiens, UniProt Q9NWB1 109-208)
# T1 sequence: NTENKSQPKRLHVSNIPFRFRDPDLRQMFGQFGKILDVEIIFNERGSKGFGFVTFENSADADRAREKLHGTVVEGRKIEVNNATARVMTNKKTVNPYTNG
# B1: CUACGGC (DNA:RNA)
# RNA: GGGAGACCGGAAUUCAGAUUGUCCCUACGGCUUAAAUCCCGUCGUAGCCACCA
# DNA 1: CAATCTGAATTCCGGTCTCCC
# DNA 2: TGGTGGCTACGACGGGATT
# B2: AUUGACA (DNA:RNA)
# RNA: B1 RNA with C25A, A27U, C28G, G29A, G30C, C31A
# DNA 1: CAATCTGAATTCCGGTCTCCC
# DNA 2: TGGTGGCTACGACGGGATT
# B3: CCGGCAU (DNA:RNA)
# RNA: B1 RNA with U26C, A27G, C28G, G29C, G30A, C31U
# DNA 1: CAATCTGAATTCCGGTCTCCC
# DNA 2: TGGTGGCTACGACGGGATT
# B4: UUCGCAU (DNA:RNA)
# RNA: B1 RNA with C25U, A27C, C28G, G29C, G30A, C31U
# DNA 1: CAATCTGAATTCCGGTCTCCC
# DNA 2: TGGTGGCTACGACGGGATT
# B5: UGUUCAA (DNA:RNA)
# RNA: GGGAGACCGGAAUUCAGAUUGUCCUGUUCAAUUAAAUCCCGUCGUAGCCACCA
# DNA 1: CAATCTGAATTCCGGTCTCCC
# DNA 2: TGGTGGCTACGACGGGATT
# B6: ACUCCAC (DNA:RNA)
# RNA: B5 RNA with U25A, G26C, U28C, A31C
# DNA 1: CAATCTGAATTCCGGTCTCCC
# DNA 2: TGGTGGCTACGACGGGATT
# B7: AGGCCAA (DNA:RNA)
# RNA: B5 RNA with U25A, U27G, U28C
# DNA 1: CAATCTGAATTCCGGTCTCCC
# DNA 2: TGGTGGCTACGACGGGATT
# B8: GCUCCUG (DNA:RNA)
# RNA: B5 RNA with U25G, G26C, U28C, A30U, A31G
# DNA 1: CAATCTGAATTCCGGTCTCCC
# DNA 2: TGGTGGCTACGACGGGATT
# B9: AGGCCUC (DNA:RNA)
# RNA: B1 RNA with C25A, U26G, A27G, G29C, G30U
# DNA 1: CAATCTGAATTCCGGTCTCCC
# DNA 2: TGGTGGCTACGACGGGATT
# Molecular target: T1, RBFOX1 RRM
# Assay: EMSA; HiTS-Eq, 1 nM pool, 10 min; buffer printed only for the single-RNA assays: 10 mM Tris pH 7.5, 150 mM NaCl, 3.4 mM EDTA, 0.001% NP-40, 30 C
# Settings: tags: His6 N-terminal (pET28a); label: 5' 32P
# Summary of the method: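 Purified RbFox RRM (wild type or mutant) was equilibrated for 10 min in 50 µL with 1 nM of a 5′-radiolabelled pool of RNA with 7 randomized nucleotides, its flanks annealed to DNA oligonucleotides, across increasing protein concentrations. Free RNA was separated by 8% native PAGE, excised, reverse-transcribed, PCR-barcoded and sequenced on an Illumina HiSeq 2500. Relative association constants came from read-count changes of each variant against the control reaction, normalised to the cognate motif.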
row,Binder,binding signal
1,B1,0.00852 KA relative to UGCAUGU
2,B2,0.00454 KA relative to UGCAUGU
3,B3,0.013 KA relative to UGCAUGU
4,B4,0.0146 KA relative to UGCAUGU
5,B5,0.0169 KA relative to UGCAUGU
6,B6,0.0042 KA relative to UGCAUGU
7,B7,0.00417 KA relative to UGCAUGU
8,B8,0.0135 KA relative to UGCAUGU
9,B9,0.00929 KA relative to UGCAUGU
